# Source: the supplement of paper PMC8728848
# Some of the results follow.
# B1: NPA (Narcissus pseudonarcissus), C0HM45 (protein)
# chain: DNILYSGETLSPGEFLNNGRYVFIMQEDCNLVLYDVDKPIWATNTGGLDRRCHLSMQSDGNLVVYSPRNNPIWASNTGGENGNYVCVLQKDRNVVIYGTARWATGTNIH
# What was measured:
# Assay in all cases: glycan array binding signal (z-score within array); higher = stronger binding
# Settings in all cases: glycan notation: IUPAC condensed, linker removed
# [1] = target: Gal(b1-4)GlcNAc(b1-2)[Gal(b1-4)GlcNAc(b1-4)]Man(a1-3)[Gal(b1-4)GlcNAc(b1-2)[Gal(b1-4)GlcNAc(b1-6)]Man(a1-6)]Man(b1-4)GlcNAc(b1-4)GlcNAc
# How it was run: (§1)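 Negative Z-scores can be read as non-binding. The Z-score is calculated within each array and then averaged across arrays of one protein sequence at different concentrations or buffers and across linkers. Arrays, 3228 in all, were curated from the Consortium for Functional Glycomics database and kept only where the protein sequence was available.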
# [2] = target: Gal(b1-4)GlcNAc(b1-2)[Gal(b1-4)GlcNAc(b1-4)]Man(a1-3)[GlcNAc(b1-4)][Gal(b1-4)GlcNAc(b1-2)Man(a1-6)]Man(b1-4)GlcNAc(b1-4)GlcNAc
# How it was run: as §1
# [3] = target: Gal(b1-4)GlcNAc(b1-2)[Gal(b1-4)GlcNAc(b1-4)]Man(a1-3)[GlcNAc(b1-4)][Gal(b1-4)GlcNAc(b1-2)[Gal(b1-4)GlcNAc(b1-6)]Man(a1-6)]Man(b1-4)GlcNAc(b1-4)GlcNAc
# How it was run: as §1
# [4] = target: Gal(b1-4)GlcNAc(b1-2)[Gal(b1-4)GlcNAc(b1-6)]Man(a1-6)[Gal(b1-4)GlcNAc(b1-2)Man(a1-3)]Man(b1-4)GlcNAc(b1-4)GlcNAc
# How it was run: as §1
# [5] = target: Gal(b1-4)GlcNAc(b1-2)[Gal(b1-4)GlcNAc(b1-6)]Man(a1-6)[Gal(b1-4)GlcNAc(b1-2)Man(a1-3)]Man(b1-4)GlcNAc(b1-4)[Fuc(a1-6)]GlcNAc
# How it was run: as §1
# [6] = target: Gal(b1-4)GlcNAc(b1-2)[Gal(b1-4)GlcNAc(b1-6)]Man(a1-6)[GlcNAc(b1-4)][Gal(b1-4)GlcNAc(b1-2)Man(a1-3)]Man(b1-4)GlcNAc(b1-4)GlcNAc
# How it was run: as §1
# [7] = target: Gal(b1-4)GlcNAc(b1-2)[Gal(b1-4)GlcNAc(b1-6)]Man(a1-6)[GlcNAc(b1-4)][Gal(b1-4)GlcNAc(b1-2)[Gal(b1-4)GlcNAc(b1-4)]Man(a1-3)]Man(b1-4)GlcNAc(b1-4)[Fuc(a1-6)]GlcNAc
# How it was run: as §1
# [8] = target: Gal(b1-4)GlcNAc(b1-3)Gal(b1-3)GalNAc
# How it was run: as §1
# [9] = target: Gal(b1-4)GlcNAc(b1-3)Gal(b1-3)GlcNAc
# How it was run: as §1
# [10] = target: Gal(b1-4)GlcNAc(b1-3)Gal(b1-4)Glc
# How it was run: as §1
# [11] = target: Gal(b1-4)GlcNAc(b1-3)Gal(b1-4)GlcNAc
# How it was run: as §1
# [12] = target: Gal(b1-4)GlcNAc(b1-3)Gal(b1-4)GlcNAc(b1-2)Man(a1-3)[Gal(b1-4)GlcNAc(b1-3)Gal(b1-4)GlcNAc(b1-2)Man(a1-6)]Man(b1-4)GlcNAc(b1-4)GlcNAc
# How it was run: as §1
# [13] = target: Gal(b1-4)GlcNAc(b1-3)Gal(b1-4)GlcNAc(b1-2)Man(a1-3)[Gal(b1-4)GlcNAc(b1-3)Gal(b1-4)GlcNAc(b1-2)Man(a1-6)]Man(b1-4)GlcNAc(b1-4)[Fuc(a1-6)]GlcNAc
# How it was run: as §1
# [14] = target: Gal(b1-4)GlcNAc(b1-3)Gal(b1-4)GlcNAc(b1-2)[Gal(b1-4)GlcNAc(b1-3)Gal(b1-4)GlcNAc(b1-6)]Man(a1-6)[Gal(b1-4)GlcNAc(b1-3)Gal(b1-4)GlcNAc(b1-2)Man(a1-3)]Man(b1-4)GlcNAc(b1-4)GlcNAc
# How it was run: as §1
# [15] = target: Gal(b1-4)GlcNAc(b1-3)Gal(b1-4)GlcNAc(b1-2)[Gal(b1-4)GlcNAc(b1-3)Gal(b1-4)GlcNAc(b1-6)]Man(a1-6)[Gal(b1-4)GlcNAc(b1-3)Gal(b1-4)GlcNAc(b1-2)Man(a1-3)]Man(b1-4)GlcNAc(b1-4)[Fuc(a1-6)]GlcNAc
# How it was run: as §1
# [16] = target: Gal(b1-4)GlcNAc(b1-3)Gal(b1-4)GlcNAc(b1-3)Gal(b1-4)GlcNAc
# How it was run: as §1
# [17] = target: Gal(b1-4)GlcNAc(b1-3)Gal(b1-4)GlcNAc(b1-3)Gal(b1-4)GlcNAc(b1-2)Man(a1-3)[Gal(b1-4)GlcNAc(b1-3)Gal(b1-4)GlcNAc(b1-3)Gal(b1-4)GlcNAc(b1-2)Man(a1-6)]Man(b1-4)GlcNAc(b1-4)GlcNAc
# How it was run: as §1
# [18] = target: Gal(b1-4)GlcNAc(b1-3)Gal(b1-4)GlcNAc(b1-3)Gal(b1-4)GlcNAc(b1-2)Man(a1-3)[Gal(b1-4)GlcNAc(b1-3)Gal(b1-4)GlcNAc(b1-3)Gal(b1-4)GlcNAc(b1-2)Man(a1-6)]Man(b1-4)GlcNAc(b1-4)[Fuc(a1-6)]GlcNAc
# How it was run: as §1
# [19] = target: Gal(b1-4)GlcNAc(b1-3)Gal(b1-4)GlcNAc(b1-3)Gal(b1-4)GlcNAc(b1-2)[Gal(b1-4)GlcNAc(b1-3)Gal(b1-4)GlcNAc(b1-3)Gal(b1-4)GlcNAc(b1-6)]Man(a1-6)[Gal(b1-4)GlcNAc(b1-3)Gal(b1-4)GlcNAc(b1-3)Gal(b1-4)GlcNAc(b1-2)Man(a1-3)]Man(b1-4)GlcNAc(b1-4)[Fuc(a1-6)]GlcNAc
# How it was run: as §1
# [20] = target: Gal(b1-4)GlcNAc(b1-3)Gal(b1-4)GlcNAc(b1-3)Gal(b1-4)GlcNAc(b1-3)Gal(b1-4)GlcNAc(b1-2)Man(a1-3)[Gal(b1-4)GlcNAc(b1-3)Gal(b1-4)GlcNAc(b1-3)Gal(b1-4)GlcNAc(b1-3)Gal(b1-4)GlcNAc(b1-2)Man(a1-6)]Man(b1-4)GlcNAc(b1-4)GlcNAc
# How it was run: as §1
# [21] = target: Gal(b1-4)GlcNAc(b1-3)Gal(b1-4)GlcNAc(b1-3)Gal(b1-4)GlcNAc(b1-3)Gal(b1-4)GlcNAc(b1-2)Man(a1-3)[Gal(b1-4)GlcNAc(b1-3)Gal(b1-4)GlcNAc(b1-3)Gal(b1-4)GlcNAc(b1-3)Gal(b1-4)GlcNAc(b1-2)Man(a1-6)]Man(b1-4)GlcNAc(b1-4)[Fuc(a1-6)]GlcNAc
# How it was run: as §1
# [22] = target: Gal(b1-4)GlcNAc(b1-3)Gal(b1-4)GlcNAc(b1-3)Gal(b1-4)GlcNAc(b1-3)Gal(b1-4)GlcNAc(b1-2)[Gal(b1-4)GlcNAc(b1-3)Gal(b1-4)GlcNAc(b1-3)Gal(b1-4)GlcNAc(b1-3)Gal(b1-4)GlcNAc(b1-6)]Man(a1-6)[Gal(b1-4)GlcNAc(b1-3)Gal(b1-4)GlcNAc(b1-3)Gal(b1-4)GlcNAc(b1-3)Gal(b1-4)GlcNAc(b1-2)Man(a1-3)]Man(b1-4)GlcNAc(b1-4)[Fuc(a1-6)]GlcNAc
# How it was run: as §1
# [23] = target: Gal(b1-4)GlcNAc(b1-3)Gal(b1-4)GlcNAc(b1-3)Gal(b1-4)GlcNAc(b1-3)Gal(b1-4)GlcNAc(b1-3)Gal(b1-4)GlcNAc(b1-2)Man(a1-3)[Gal(b1-4)GlcNAc(b1-3)Gal(b1-4)GlcNAc(b1-3)Gal(b1-4)GlcNAc(b1-3)Gal(b1-4)GlcNAc(b1-3)Gal(b1-4)GlcNAc(b1-2)Man(a1-6)]Man(b1-4)GlcNAc(b1-4)GlcNAc
# How it was run: as §1
binder,measurement,setting,value
B1,glycan array binding signal (z-score),[1],-0.084
same,glycan array binding signal (z-score),[2],-0.15
same,glycan array binding signal (z-score),[3],-0.152
same,glycan array binding signal (z-score),[4],-0.133
same,glycan array binding signal (z-score),[5],-0.14
same,glycan array binding signal (z-score),[6],-0.156
same,glycan array binding signal (z-score),[7],-0.141
same,glycan array binding signal (z-score),[8],-0.148
same,glycan array binding signal (z-score),[9],-0.146
same,glycan array binding signal (z-score),[10],-0.15
same,glycan array binding signal (z-score),[11],-0.153
same,glycan array binding signal (z-score),[12],0.034
same,glycan array binding signal (z-score),[13],-0.066
same,glycan array binding signal (z-score),[14],-0.104
same,glycan array binding signal (z-score),[15],-0.085
same,glycan array binding signal (z-score),[16],-0.159
same,glycan array binding signal (z-score),[17],0.089
same,glycan array binding signal (z-score),[18],-0.101
same,glycan array binding signal (z-score),[19],-0.07
same,glycan array binding signal (z-score),[20],-0.087
same,glycan array binding signal (z-score),[21],-0.077
same,glycan array binding signal (z-score),[22],-0.078
same,glycan array binding signal (z-score),[23],-0.091
